According to article PMC7819943, “Rice protein-binding microarrays: a tool to detect cis-acting elements near promoter regions in rice”:
The other results are listed elsewhere or left out.

Each sequence was assayed against T1, OsWOX13 (Oryza sativa, UniProt Q5QMM3 1-267) (assay: protein-binding microarray (RPBM); PBS, 2% BSA, 51.3 ng/ul salmon testes DNA, 50 uM zinc acetate, 200 nM TF, 25 C, 1 h; high values mean tight binding). Conditions: protein: recombinant; tags: N-terminal polyhistidine and DsRed monomer fusion (pET32a); label: CyDye5-dUTP incorporated in the synthesized complementary strand; 3' TTTTT single-stranded linker to array surface; dsDNA, one strand shown.
T1 sequence: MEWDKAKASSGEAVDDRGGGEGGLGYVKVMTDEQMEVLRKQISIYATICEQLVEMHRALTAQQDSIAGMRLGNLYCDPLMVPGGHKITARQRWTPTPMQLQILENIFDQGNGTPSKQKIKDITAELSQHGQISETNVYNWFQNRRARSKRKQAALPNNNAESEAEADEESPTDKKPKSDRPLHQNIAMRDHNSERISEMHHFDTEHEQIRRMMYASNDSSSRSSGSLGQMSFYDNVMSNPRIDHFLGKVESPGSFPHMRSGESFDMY
Method in brief: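 Per-feature fluorescence intensity (arbitrary units), read on an Axon 4000B scanner, is the binding signal. Transcription factors carrying an N-terminal polyhistidine tag and DsRed fusion were expressed in E. coli BL21-CodonPlus and purified on Ni–NTA. A custom Agilent array, made double-stranded by primer extension with Cy5-dUTP and blocked with 2% BSA, was incubated with 200 nM protein in PBS, 2% BSA, salmon testes DNA and 50 µM zinc acetate at 25 °C for 1 h and then washed.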

Point of comparison: “AAATAATCATGTACAATCTTGTTGTTGGTAAATAGTAACTCGGAGTCACCTAGTGCAG”, binding signal 6690 fluorescence intensity (a.u.). Against it:
- CCGTACTTAATTATTACAATGATTCCACGCTAATTTAGAACGGAGTCACCTAGTGCAG — higher, 30200 fluorescence intensity (a.u.)
- CAGTAACTGTAATAGTGATAACATTATGGTGGAGGATCCTCGGAGTCACCTAGTGCAG — lower, 3650 fluorescence intensity (a.u.)
- TTGAATTTAATAAAATAATTTGTTGTAGTAGATGTTGCTACGGAGTCACCTAGTGCAG — higher, 7560 fluorescence intensity (a.u.)
- CGGTCATGGATTTGAATCAATCAGTCATTCGCTGTAGTGCCGGAGTCACCTAGTGCAG — higher, 14100 fluorescence intensity (a.u.)
- ACACGCAATCAAAATGCTTACAAATCAAACCGCCTCTCGACGGAGTCACCTAGTGCAG — lower, 6480 fluorescence intensity (a.u.)
- CCCTAAGTGGGTCAATTAAGACCAATTGGGCTTTACAATTCGGAGTCACCTAGTGCAG — higher, 10100 fluorescence intensity (a.u.)
- ATTTGTATTGATTACCACCATCTATATCTATATCTATACTCGGAGTCACCTAGTGCAG — lower, 3180 fluorescence intensity (a.u.)
- TGAATAATTCAATTATTTTAGGTAAAGCAAACATCGTAAGCGGAGTCACCTAGTGCAG — higher, 7780 fluorescence intensity (a.u.)
- CTCGTTTAATAGATTGCCGGATATGCCTCCGAAAAGCTAACGGAGTCACCTAGTGCAG — higher, 18000 fluorescence intensity (a.u.)
- CGTTCTCAATCAATCATTCCATACTCGCTATCCCCTCCATCGGAGTCACCTAGTGCAG — higher, 33700 fluorescence intensity (a.u.)
- TCCGGTAATTTCTCCACCCCTTCTCTTGGCCTATAAATTGCGGAGTCACCTAGTGCAG — higher, 8770 fluorescence intensity (a.u.)
- GCCCTACACAATTTAATTACGTTGACACTGGCCGGTCTTACGGAGTCACCTAGTGCAG — higher, 7560 fluorescence intensity (a.u.)
- ATGAGATAATTAGTTTTATTTTATTTTATTTTGGTTGTTACGGAGTCACCTAGTGCAG — higher, 27100 fluorescence intensity (a.u.)
- AGTTGATAGGAGTAGCTTGAAGAAGCAGAGACAGCTAGATCGGAGTCACCTAGTGCAG — higher, 7600 fluorescence intensity (a.u.)
- AAGCCTAATTAATCCGTTATTAGTAAATGTTTACTATAGCCGGAGTCACCTAGTGCAG — higher, 24300 fluorescence intensity (a.u.)
- GACTTGATTTACAGATTTATTGACAGAGTTTTGCTAAGCTCGGAGTCACCTAGTGCAG — higher, 56600 fluorescence intensity (a.u.)
- TGAGTATATATAATTAGGGATTAAATTACAATATTTTAAGCGGAGTCACCTAGTGCAG — lower, 5780 fluorescence intensity (a.u.)
- ACCTCAAATTGCAGTACGGATTGGGTACTAGTCATCAACACGGAGTCACCTAGTGCAG — lower, 5990 fluorescence intensity (a.u.)
- AGAATTGATTAGCTCTTGTTTCTATCATGTTAAACACATTCGGAGTCACCTAGTGCAG — higher, 33000 fluorescence intensity (a.u.)
- GTAAATATTAATGAATTGCTTGTTTATGTTTAAATAAATGCGGAGTCACCTAGTGCAG — lower, 4960 fluorescence intensity (a.u.)
- ATATCTAGACAATCAAGCTGTTGACCGAGTTTTCAGGGTGCGGAGTCACCTAGTGCAG — lower, 5100 fluorescence intensity (a.u.)
- TGTGATTGGTGCGTTTACCGGTTGCAAGTTGCCTCGCCGCCGGAGTCACCTAGTGCAG — higher, 48900 fluorescence intensity (a.u.)
- TTGTGTCACAGTATAAATTAAGTTCCGTACGTGCATACTTCGGAGTCACCTAGTGCAG — lower, 3160 fluorescence intensity (a.u.)
- TAGATTAATTATATTTATCTCTCATATAATGTGTGCTATACGGAGTCACCTAGTGCAG — higher, 24400 fluorescence intensity (a.u.)
- TTGAAGTTTATTAATTGTACATCTTTAAACAAATATCTCACGGAGTCACCTAGTGCAG — lower, 3450 fluorescence intensity (a.u.)
- CCTAAAAGATTTGATGATGTTGCAAATAAAATTATAAGAACGGAGTCACCTAGTGCAG — lower, 4010 fluorescence intensity (a.u.)
- TGAAATAATTTGAGGAAGTAAAATTTTATATATATACTCCCGGAGTCACCTAGTGCAG — higher, 7440 fluorescence intensity (a.u.)
- TTTATTGTGACTTGATTTATCATCAAATGTTCTTTAAGAACGGAGTCACCTAGTGCAG — higher, 8720 fluorescence intensity (a.u.)
- TTGAAATTTTGTATATCAAGCCACTAGTCTAGTAGGCTATCGGAGTCACCTAGTGCAG — lower, 3390 fluorescence intensity (a.u.)
- ATCAAATTAATTGATGGTGTTTAATTAACAGGGAAGGCTACGGAGTCACCTAGTGCAG — higher, 46700 fluorescence intensity (a.u.)
- CGAAATGCAAATTAATTAGTTGCAGAGGATAAATTTGCATCGGAGTCACCTAGTGCAG — higher, 41500 fluorescence intensity (a.u.)
- GAGTTGATTTGCGTTGTCTCTCCGTCTCTTTCTTATTAATCGGAGTCACCTAGTGCAG — higher, 20800 fluorescence intensity (a.u.)
- AGATTCAGGAATTGACAACTTATCATTGGACAATTTCAGCCGGAGTCACCTAGTGCAG — lower, 4130 fluorescence intensity (a.u.)
- TTGATTAATTACAAGGCAGCTATAACGGTGTAACCTACCGCGGAGTCACCTAGTGCAG — higher, 51700 fluorescence intensity (a.u.)
- ATAATTGAATACTACATAAGCACAACAGGAGCCAAAATAACGGAGTCACCTAGTGCAG — higher, 10100 fluorescence intensity (a.u.)
- TTAAGATTAAGATTAAGATAGATAATAATACGACATGTTCCGGAGTCACCTAGTGCAG — higher, 9470 fluorescence intensity (a.u.)
- CTTTGTACTGACAGGATATATTTGGCAATCAGTACACTCACGGAGTCACCTAGTGCAG — lower, 3910 fluorescence intensity (a.u.)
- CAGCCAAAATTTAAATTTTCAACCATAAATTTGGAGTTGACGGAGTCACCTAGTGCAG — higher, 8820 fluorescence intensity (a.u.)
- ATTTAATGTACAATCATGCTTTTCCGTACTAAATTTTGTTCGGAGTCACCTAGTGCAG — higher, 14800 fluorescence intensity (a.u.)
- GGTAAATAGATTCAAATTTCTAATTTGTTACCGGTGCATGCGGAGTCACCTAGTGCAG — higher, 27400 fluorescence intensity (a.u.)
- GGTCAATTTCTTTCTAGCAATTCATGATAAGTACTCATTCCGGAGTCACCTAGTGCAG — lower, 3150 fluorescence intensity (a.u.)
